# Source: PubChem BioAssay AID903 (National Center for Advancing Translational Sciences (NCATS), 2007)
# The whole screen tested about 55,000 compounds, of which about 340 (0.62%) were called active. Inconclusive results, whose numbers are uncertain, are shown with a selection of clear calls. Calls follow the shape of the dose curve; as a rule, active = well fitted cell-killing curve with a large enough effect; inconclusive = small, poorly fitted or top-dose-only effect; inactive = no such curve, though single readings can be large or run the other way. A potency beside an inconclusive call is a rough fit, not a confirmed value.
# Assay: qHTS Screen for Compounds that Selectively Target Cancer Cells with p53 Mutations: Cytotoxicity of p53 Null Cells at the Permissive Temperature; also: nearly all actives have a fitted effect of over 55% in size;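 as to activity change, negative = cytotoxicity: 0% = DMSO only and -100% = full killing by 100 µM tamoxifen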
# Conditions: H1299-neo p53 null cells, ATP luminescence, 24 h, 32C; series mostly up to 46.1 µM; activity change, negative = cytotoxicity: at the top concentration
# Description: NIH Chemical Genomics Center [NCGC] NIH Molecular Libraries Screening Centers Network [MLSCN] MLSCN Grant: 1 X01 MH079844-01 Assay Submitter (PI): Dr. SUN, YI, University of Michigan NCGC Assay Overview: Synthetic Lethal Screen for Compounds to Kill Cancer Cells with p53 Mutation. Tumor suppressor gene p53 serves as a major cellular barrier against tumorigenesis. […] The goal of this screening is to identify small molecule probes that selectively kill cancer cells with mutations in p53. This screening was carried out using two lines of H1299 lung cancer cells. The H1299-p53 A138V line express a temperature sensitive p53 mutant (p53ts) in which the mutant p53 protein (A138V) is in the mutant confirmation when grown at 39C (the nonpermissive temperature) and in the wild type conformation when grown at 32C (the permissive temperature). A H1299-neo line (p53 null) grown at both 39C and 32C were used as counter-screens to filter out false positive associated with temperature shifting. The small molecular compounds that selectively target mutant p53-containing cancer cells were selected as candidate probes for further study. A cytotoxicity assay based on the measurement of ATP contents in cells was used in this screen. Concentration-responses of all the compounds in the library collection were determined in qHTS using the cell lines and temperature conditions as above.
# NCGC Assay Protocol Summary: Both the H1299-p53A138V and H1299-neo cell lines were provided by Dr.Yi Sun, a PI at the University Michigan. The cells were maintained and cultured at 37C. The resuspended frozen cells were used to plate the cells in the 1536-well assay plates at a density of 600 cells per well in 5 ul medium. The assay plates with the cells were incubated at 37C for 16 to 30 hours before the experiments. The library compounds in DMSO solution were added to the cells in assay plates and incubated 24 hours at 39C (for mutant p53 conformation) or 32C (for normal p53 conformation as control). An ATP_lite assay kit (PerkinElmer) was used to determine the cell viability. Tomaxifen (100uM) was used as the positive control for cell killing. Data were normalized to the controls for basal activity (DMSO only) and 100% killing (100uM tamoxifen). AC50 values were determined from concentration-response data modeled with the standard Hill equation. P53 assay protocol: 1. Reagent; 5 uL H1299-p53A138V or H1299-neo cell cells/well 2. Time; overnight; 37C incubation 3. Compounds; 23 nL; 5.9 nM to 46 uM 4. Controls; 23 nL; Tamoxifen 100 uM 5. Time; 24 hr; 32C incubation 6. Reagent; 3 uL; ATP_Lite reagent 7. Time; 20 min; Room Temperature 8. Detection; Luminescence; Viewlux plate reader Keywords: p53, synthetic lethal, cancer, cell viability, cytotoxicity, H1299 cell line, luminescence, MLSMR, MLSCN, NIH Roadmap, qHTS, NCGC
# Potency is read from the fitted curve at half-maximal effect; tags tell the direction and shape of the fitted curve.
SMILES,Potency,"activity change, negative = cytotoxicity"
CC(C)(C)c1ccc(OCC(=O)NCC2(N3CCOCC3)CCCCC2)cc1,"inconclusive: 10 µM [cytotoxic, partial curve]",
CCS(=O)(=O)c1oc(-c2ccc(F)cc2)nc1S(=O)(=O)c1ccccc1,"inconclusive: 25.1 µM [cytotoxic, single point]",
COc1ccc(N2CCN(C(=O)CN3C(=O)COc4ccc(S(=O)(=O)N5CCC(C)CC5)cc43)CC2)cc1,"inconclusive: 35.5 µM [cytotoxic, single point]",
CCC(C)NC(=O)CSc1c2c(nc3cc(Cl)ccc13)CCCC2 (configuration not stated),,inactive: 2.11%
CCCCN(CCCNC(=O)c1cc(Nc2ccc(OC)c(OC)c2)nc2ccccc12)c1ccccc1,,inactive: -8.06%
Fc1ccccc1N1CCN(c2nc3ccccc3c3nc(-c4ccccc4)nn23)CC1,"inconclusive: 5.01 µM [cytotoxic, full curve, poor fit]",
CSc1ccc(-c2nnc(NC(=O)c3ccc4c(c3)OCCO4)o2)cc1,,inactive: -16%
CC(C)Oc1ccc(C(=O)Nc2c(C(=O)Nc3cccc(F)c3)oc3ccccc23)cc1,"inconclusive: 12.6 µM [cytotoxic, partial curve]",
CN1CCN(c2ncc3c(n2)CCN(Cc2ccc(Br)s2)C3)CC1,,inactive: 10.1%
COc1cccc(NC(=O)Cn2cc(C(=O)c3ccc(C)cc3)c(=O)c3cc(OC)ccc32)c1,"inconclusive: 35.5 µM [cytotoxic, single point]",
O=S(=O)(NCc1nc2cccnc2n1Cc1ccccc1Cl)c1ccc2c(c1)CCCC2,"inconclusive: 6.31 µM [cytotoxic, single point]",
COc1ccc(C(NC(=O)c2c(F)c(F)c(F)c(F)c2F)c2ccccc2)cc1 (configuration not stated),"inconclusive: 35.5 µM [cytotoxic, single point]",
COc1cc(CNCCSc2nnnn2C)cc(Cl)c1OCc1ccccc1,,inactive: 7.6%
O=C(N/N=C/c1ccccc1O)/C(=C/c1ccccc1)CCO,"inconclusive: 8.91 µM [cytotoxic, partial curve]",
COc1ccc(Cl)cc1NC(=O)c1c(NCc2cccnc2)sc2c1CCC(C)C2 (configuration not stated),"inconclusive: 0.01 µM [cytotoxic, full curve, poor fit]",
Oc1ccc(NCc2ccccc2OCc2ccc(Cl)cc2)cc1,,inactive: -26%
Cc1cccc(N2CCN(C(=O)C3CCN(c4ncnc5c4nc4n5CCCCC4)CC3)CC2C)c1 (configuration not stated),,inactive: -1.75%
CCS(=O)(=O)c1ncc(Cl)c(C(=O)NCc2ccc(OC)cc2)n1,"inconclusive: 7.94 µM [cytotoxic, partial curve]",
CCc1ccccc1NC(=O)Cn1nc(C(F)(F)F)c2c1CCC2,inactive,
N#Cc1c(-n2ncnc2-c2ccc(F)cc2)sc2c1CCCCC2,active: 10 µM,
COc1ccc(-c2cc(C(F)(F)F)nc(SCC(=O)NCCc3ccccc3)n2)cc1,,inactive: -1.17%
CC(C)CCn1c(/C=C/c2ccccc2)nc2ccccc21,"inconclusive: 20 µM [cytotoxic, single point]",
COc1cc2c(=O)c(S(=O)(=O)c3ccccc3)cn(CC(=O)Nc3ccccc3C)c2cc1OC,"inconclusive: 22.4 µM [cytotoxic, single point]",

SMILES,Potency,"activity change, negative = cytotoxicity"
CC(=O)c1cccc(NC(=O)c2nc(-c3ccccc3)n(-c3cccc(C)c3)n2)c1,"inconclusive: 12.6 µM [cytotoxic, partial curve]",
Cc1cc(Cl)ccc1NC(=O)c1cc2ccccn2n1,"inconclusive: 12.6 µM [cytotoxic, partial curve]",
Cc1ccc2cc3cc(C(=O)N(C)c4ccccc4C)oc3nc2c1,"inconclusive: 10 µM [cytotoxic, partial curve]",
Cc1cccc(-n2cnc3cc(C(=O)NC4CCCCCC4)ccc32)c1,,inactive: 44.1%
COc1ccc(-n2c(=O)c3sc4ccccc4c3n(CC(=O)NCc3ccccc3)c2=O)cc1,"inconclusive: 6.31 µM [cytotoxic, single point]",
Cc1nc2c(C(=O)NCCc3ccccc3)c[nH]n2c(=O)c1Cc1ccc(F)cc1Cl,active: 12.6 µM,
Cc1cccc(N2CCN(C(=O)c3ccc(NC(=O)c4nsc5ccccc45)cc3)CC2)c1C,"inconclusive: 35.5 µM [cytotoxic, single point]",
COc1cccc(/C=C(\C#N)c2nc3ccc(C)cc3[nH]2)c1,"inconclusive: 31.6 µM [cytotoxic, single point]",
CCOc1ccc(NC(=O)CSc2oc(-c3cccs3)nc2S(=O)(=O)c2ccc(Cl)cc2)cc1,,inactive: -10.1%
Oc1cccc(Nc2nc(-c3ccccc3)nc3ccccc23)c1,,inactive: -3.12%
O=C(N/N=C/c1sc2ccccc2c1O)c1ccccc1,active: 7.08 µM,
O=C(Cn1c(=O)oc2cc(S(=O)(=O)NCc3ccccc3)ccc21)NCc1ccc(F)cc1,"inconclusive: 4.47 µM [cytotoxic, full curve, poor fit]",
O=C(Cn1nc(C(F)(F)F)c2c1CCCC2)Nc1ccc(F)c(Cl)c1,"inconclusive: 14.1 µM [cytotoxic, single point]",
Cc1ccc(C(C)C)c(OCC(=O)Nc2nc3c(s2)CCCC3)c1,"inconclusive: 4.47 µM [cytotoxic, full curve, poor fit]",
O=C(CCn1cnc(-c2ccccc2)c1-c1ccccc1)N/N=C/c1ccccc1O,"inconclusive: 35.5 µM [cytotoxic, single point]",
O=C(COc1ccc(F)cc1)Nc1nccs1,"inconclusive: 10 µM [cytotoxic, partial curve]",
Cc1ccc(-n2ncc3c(N4CCC(C)CC4)ncnc32)cc1C,"inconclusive: 12.6 µM [cytotoxic, single point]",
Cc1cccc(OC(=O)c2cc(-c3ccc4c(c3)OCCO4)on2)c1,"inconclusive: 20 µM [cytotoxic, single point]",
COc1ccccc1NC(=O)c1c(NCc2ccc(C)o2)sc2c1CCC(C)C2 (configuration not stated),"inconclusive: 20 µM [cytotoxic, single point]",
COC(=O)c1c(SCC(=O)Nc2cc(C)cc(C)c2)[nH]c2ccccc2c1=O,"inconclusive: 25.1 µM [cytotoxic, single point]",
O=C(CSC1=Nc2ccccc2N=C(c2ccc(F)cc2)C1)NCc1ccc(F)cc1,,inactive: -0.0706%
Cc1ccc(CSc2nc3cccnc3n2Cc2ccc(C(=O)NCCc3ccccc3)cc2)cc1,"inconclusive: 10 µM [cytotoxic, partial curve]",
CCOc1c(Cl)cc(Cl)cc1CNCCSc1nnnn1C,"inconclusive: 31.6 µM [cytotoxic, single point]",

SMILES,Potency,"activity change, negative = cytotoxicity"
Cc1ccc(/C=C/c2onc(C)c2S(=O)(=O)N2CCC(C(=O)NCc3ccc(C)o3)CC2)cc1,,inactive: -3.08%
CCOc1cccc2cc(-c3nc4ccc(C(=O)O)cc4[nH]3)c(=O)oc12,"inconclusive: 25.1 µM [cytotoxic, single point]",
Cc1ccc(OC(=O)c2cc(-c3ccc4c(c3)OCCO4)on2)cc1C,"inconclusive: 31.6 µM [cytotoxic, single point]",
COc1ccc(NC(=O)c2oc3ccccc3c2NC(=O)c2cc3ccccc3o2)cc1,"inconclusive: 7.94 µM [cytotoxic, partial curve]",
Cc1ccc(-n2nc(C)c(C(=O)NCCCN3CCN(c4ccc(F)cc4)CC3)c2-n2cccc2)cc1,,inactive: 12.1%
Nc1c(-c2nc(-c3cccs3)no2)nnn1-c1ccccc1Cl,"inconclusive: 7.94 µM [cytotoxic, partial curve]",
COc1cc(-c2noc(-c3ccc(NCc4ccccc4)c([N+](=O)[O-])c3)n2)cc(OC)c1OC,"inconclusive: 20 µM [cytotoxic, partial curve]",
C/C(=N\NC(=O)CSCc1ccccc1Cl)c1cccc(NC(=O)c2ccccc2)c1,,inactive: -9.01%
CCN(CC)c1ccc(NS(=O)(=O)c2ccc(-c3cnc(C4CC4)o3)cc2)c(C)c1,"inconclusive: 3.16 µM [cytotoxic, single point]",
Clc1ccc(-c2cn3ncsc3n2)cc1,"inconclusive: 12.6 µM [cytotoxic, single point]",
COc1cc(NC(=O)c2ccc(-c3nc(COc4ccccc4)c(C)o3)cc2)cc(OC)c1,,inactive: -0.407%
CCOC(=O)C1CCCN(C(=O)c2cccc(NC(=O)c3nsc4ccccc34)c2)C1 (configuration not stated),"inconclusive: 12.6 µM [cytotoxic, partial curve]",
CC1CCN(S(=O)(=O)c2ccc3c(c2)oc(=O)n3CC(=O)NC(C)c2ccccc2)CC1 (configuration not stated),"inconclusive: 14.1 µM [cytotoxic, single point]",
CCCc1cc(=O)n2[nH]c(-c3ccccc3)cc2n1,"inconclusive: 17.8 µM [cytotoxic, partial curve]",
Cc1ccc2nc(-c3ccc(NC(=O)C(F)(F)F)cc3)sc2c1,active: 2 µM,
Cc1cccc(-c2nc(CCNC(=O)c3ccccc3Br)cs2)c1,"inconclusive: 4.47 µM [cytotoxic, partial curve, poor fit]",
COc1ccc(NC(=O)CSc2nnc3scc(-c4ccc(Cl)cc4)n23)cc1,"inconclusive: 20 µM [cytotoxic, single point]",
O=C(Nc1noc2ccccc12)c1c(F)cccc1F,"inconclusive: 10 µM [cytotoxic, partial curve]",
CC1CCN(C(=O)CSc2c3c(nc4ccc(Cl)cc24)CCCC3)CC1,"inconclusive: 35.5 µM [cytotoxic, single point]",
COc1ccc(NC(=O)Cn2c(SCc3ccc(F)cc3)nc3cccnc32)c(OC)c1,"inconclusive: 11.2 µM [cytotoxic, partial curve]",
Cc1ccc(-n2ncc3c(NC4CCCC4)ncnc32)cc1,active: 7.94 µM,
